# Assay results from article PMC12820563, “FoxP3 forms a head-to-head dimer in vivo and stabilizes its multimerization on adjacent microsatellites”.
# Some of the results follow.
# Target: T1, MBP-FoxP1dN (Mus musculus, UniProt P58462 326-579)
# T1 sequence: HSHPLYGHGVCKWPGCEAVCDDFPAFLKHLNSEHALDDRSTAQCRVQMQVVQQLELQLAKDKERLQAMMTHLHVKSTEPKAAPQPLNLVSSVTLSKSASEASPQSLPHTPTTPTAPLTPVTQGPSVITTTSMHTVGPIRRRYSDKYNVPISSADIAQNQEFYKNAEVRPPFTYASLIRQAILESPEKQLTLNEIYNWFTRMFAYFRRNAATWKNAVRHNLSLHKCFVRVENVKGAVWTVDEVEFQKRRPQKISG
# Assay: PD-seq (MBP pull-down with sequencing); 20 mM Tris-HCl pH 7.5, 100 mM NaCl, 1.5 mM MgCl2, 0.4 uM protein, 0.1 uM dsDNA library, 30 min, room temperature, amylose pull-down; high values mean tight binding
# Settings: protein: recombinant; tags: His6-MBP; chain copies: 2; dsDNA, one strand shown
# Summary of the method: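 E. coli-expressed mouse FoxP3 or FoxP1 fragment, N-terminus removed and tagged with His6-MBP, was used at 0.4 µM against 0.1 µM of a Klenow-filled degenerate double-stranded DNA library. After 30 min at room temperature in Tris pH 7.5 buffer with NaCl and MgCl2, complexes were pulled down on amylose resin and washed three times. Binding is pull-down over input reads-per-million enrichment from pooled replicates of the proteinase K-released, PCR-barcoded, Illumina-sequenced DNA.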
row,Sequence,binding signal
1,GATGATTGTTCTCCCAGCTGATGAATTTCAATCGTCGAGTAAACAAATTTTCCTAATCTTTCTGTTCAAGCGCCATCTAC,0.842 RPM ratio (pull-down/input)
2,GATGATTGTTCTCCCAGCTGATGAATTGTAGAACTCGAGTAAACAAATTTTCCTAATCTTTCTGTTCAAGCGCCATCTAC,0.862 RPM ratio (pull-down/input)
3,GATGATTGTTCTCCCAGCTGATGAATTTTTTAGGTCGAGTAAACAAATTTTCCTAATCTTTCTGTTCAAGCGCCATCTAC,0.925 RPM ratio (pull-down/input)
4,GATGATTGTTCTCCCAGCTGATGAATTAAATGATTCGAGTAAACAAATTTTCCTAATCTTTCTGTTCAAGCGCCATCTAC,1.03 RPM ratio (pull-down/input)
5,GATGATTGTTCTCCCAGCTGATGAATTTAAGGCGTCGAGTAAACAAATTTTCCTAATCTTTCTGTTCAAGCGCCATCTAC,0.91 RPM ratio (pull-down/input)
6,GATGATTGTTCTCCCAGCTGATGAATTTAACCTCTCGAGTAAACAAATTTTCCTAATCTTTCTGTTCAAGCGCCATCTAC,0.836 RPM ratio (pull-down/input)
7,GATGATTGTTCTCCCAGCTGATGAATTCCCTATTTCGAGTAAACAAATTTTCCTAATCTTTCTGTTCAAGCGCCATCTAC,0.89 RPM ratio (pull-down/input)
8,GATGATTGTTCTCCCAGCTGATGAATTATCATGATCGAGTAAACAAATTTTCCTAATCTTTCTGTTCAAGCGCCATCTAC,1.05 RPM ratio (pull-down/input)
9,GATGATTGTTCTCCCAGCTGATGAATTACAGCTTTCGAGTAAACAAATTTTCCTAATCTTTCTGTTCAAGCGCCATCTAC,1.09 RPM ratio (pull-down/input)
10,GATGATTGTTCTCCCAGCTGATGAATTAAAATGGTCGAGTAAACAAATTTTCCTAATCTTTCTGTTCAAGCGCCATCTAC,0.897 RPM ratio (pull-down/input)
11,GATGATTGTTCTCCCAGCTGATGAATTATTCAACTCGAGTAAACAAATTTTCCTAATCTTTCTGTTCAAGCGCCATCTAC,0.975 RPM ratio (pull-down/input)
12,GATGATTGTTCTCCCAGCTGATGAATTACCAATCTCGAGTAAACAAATTTTCCTAATCTTTCTGTTCAAGCGCCATCTAC,0.961 RPM ratio (pull-down/input)
13,GATGATTGTTCTCCCAGCTGATGAATTAAGACGATCGAGTAAACAAATTTTCCTAATCTTTCTGTTCAAGCGCCATCTAC,0.826 RPM ratio (pull-down/input)
14,GATGATTGTTCTCCCAGCTGATGAATTGCTTACCTCGAGTAAACAAATTTTCCTAATCTTTCTGTTCAAGCGCCATCTAC,1.41 RPM ratio (pull-down/input)
15,GATGATTGTTCTCCCAGCTGATGAATTCTAGCAGTCGAGTAAACAAATTTTCCTAATCTTTCTGTTCAAGCGCCATCTAC,0.834 RPM ratio (pull-down/input)
16,GATGATTGTTCTCCCAGCTGATGAATTTCCGGACTCGAGTAAACAAATTTTCCTAATCTTTCTGTTCAAGCGCCATCTAC,0.734 RPM ratio (pull-down/input)
17,GATGATTGTTCTCCCAGCTGATGAATTTTTGCATTCGAGTAAACAAATTTTCCTAATCTTTCTGTTCAAGCGCCATCTAC,1.48 RPM ratio (pull-down/input)
18,GATGATTGTTCTCCCAGCTGATGAATTTTTCTCTTCGAGTAAACAAATTTTCCTAATCTTTCTGTTCAAGCGCCATCTAC,0.872 RPM ratio (pull-down/input)
19,GATGATTGTTCTCCCAGCTGATGAATTCACCCCATCGAGTAAACAAATTTTCCTAATCTTTCTGTTCAAGCGCCATCTAC,0.891 RPM ratio (pull-down/input)
20,GATGATTGTTCTCCCAGCTGATGAATTCGGGCTATCGAGTAAACAAATTTTCCTAATCTTTCTGTTCAAGCGCCATCTAC,0.827 RPM ratio (pull-down/input)
21,GATGATTGTTCTCCCAGCTGATGAATTTGATGAGTCGAGTAAACAAATTTTCCTAATCTTTCTGTTCAAGCGCCATCTAC,0.803 RPM ratio (pull-down/input)

row,Sequence,binding signal
1,GATGATTGTTCTCCCAGCTGATGAATTCCCCACTTCGAGTAAACAAATTTTCCTAATCTTTCTGTTCAAGCGCCATCTAC,0.877 RPM ratio (pull-down/input)
2,GATGATTGTTCTCCCAGCTGATGAATTAGGATTGTCGAGTAAACAAATTTTCCTAATCTTTCTGTTCAAGCGCCATCTAC,0.969 RPM ratio (pull-down/input)
3,GATGATTGTTCTCCCAGCTGATGAATTGGATGGCTCGAGTAAACAAATTTTCCTAATCTTTCTGTTCAAGCGCCATCTAC,0.804 RPM ratio (pull-down/input)
4,GATGATTGTTCTCCCAGCTGATGAATTACGCAGGTCGAGTAAACAAATTTTCCTAATCTTTCTGTTCAAGCGCCATCTAC,0.977 RPM ratio (pull-down/input)
5,GATGATTGTTCTCCCAGCTGATGAATTCTCCAGCTCGAGTAAACAAATTTTCCTAATCTTTCTGTTCAAGCGCCATCTAC,0.825 RPM ratio (pull-down/input)
6,GATGATTGTTCTCCCAGCTGATGAATTGGAAGATTCGAGTAAACAAATTTTCCTAATCTTTCTGTTCAAGCGCCATCTAC,0.835 RPM ratio (pull-down/input)
7,GATGATTGTTCTCCCAGCTGATGAATTTTATACCTCGAGTAAACAAATTTTCCTAATCTTTCTGTTCAAGCGCCATCTAC,0.928 RPM ratio (pull-down/input)
8,GATGATTGTTCTCCCAGCTGATGAATTGACCGCTTCGAGTAAACAAATTTTCCTAATCTTTCTGTTCAAGCGCCATCTAC,0.971 RPM ratio (pull-down/input)
9,GATGATTGTTCTCCCAGCTGATGAATTGTCCGCGTCGAGTAAACAAATTTTCCTAATCTTTCTGTTCAAGCGCCATCTAC,1 RPM ratio (pull-down/input)
10,GATGATTGTTCTCCCAGCTGATGAATTTACATATTCGAGTAAACAAATTTTCCTAATCTTTCTGTTCAAGCGCCATCTAC,1.5 RPM ratio (pull-down/input)
11,GATGATTGTTCTCCCAGCTGATGAATTCATTTAGTCGAGTAAACAAATTTTCCTAATCTTTCTGTTCAAGCGCCATCTAC,0.95 RPM ratio (pull-down/input)
12,GATGATTGTTCTCCCAGCTGATGAATTGGTCCTATCGAGTAAACAAATTTTCCTAATCTTTCTGTTCAAGCGCCATCTAC,0.903 RPM ratio (pull-down/input)
13,GATGATTGTTCTCCCAGCTGATGAATTCAGCTCTTCGAGTAAACAAATTTTCCTAATCTTTCTGTTCAAGCGCCATCTAC,0.807 RPM ratio (pull-down/input)
14,GATGATTGTTCTCCCAGCTGATGAATTCCTCAAATCGAGTAAACAAATTTTCCTAATCTTTCTGTTCAAGCGCCATCTAC,0.865 RPM ratio (pull-down/input)
15,GATGATTGTTCTCCCAGCTGATGAATTAGCCAGTTCGAGTAAACAAATTTTCCTAATCTTTCTGTTCAAGCGCCATCTAC,0.85 RPM ratio (pull-down/input)
16,GATGATTGTTCTCCCAGCTGATGAATTCCGATGCTCGAGTAAACAAATTTTCCTAATCTTTCTGTTCAAGCGCCATCTAC,0.96 RPM ratio (pull-down/input)
17,GATGATTGTTCTCCCAGCTGATGAATTCAGGTCTTCGAGTAAACAAATTTTCCTAATCTTTCTGTTCAAGCGCCATCTAC,0.829 RPM ratio (pull-down/input)
18,GATGATTGTTCTCCCAGCTGATGAATTTTTAGGGTCGAGTAAACAAATTTTCCTAATCTTTCTGTTCAAGCGCCATCTAC,0.898 RPM ratio (pull-down/input)
19,GATGATTGTTCTCCCAGCTGATGAATTGACATCTTCGAGTAAACAAATTTTCCTAATCTTTCTGTTCAAGCGCCATCTAC,1.37 RPM ratio (pull-down/input)
20,GATGATTGTTCTCCCAGCTGATGAATTGTAAGCATCGAGTAAACAAATTTTCCTAATCTTTCTGTTCAAGCGCCATCTAC,1.66 RPM ratio (pull-down/input)
21,GATGATTGTTCTCCCAGCTGATGAATTGGTACAGTCGAGTAAACAAATTTTCCTAATCTTTCTGTTCAAGCGCCATCTAC,0.973 RPM ratio (pull-down/input)

row,Sequence,binding signal
1,GATGATTGTTCTCCCAGCTGATGAATTGTACAGCTCGAGTAAACAAATTTTCCTAATCTTTCTGTTCAAGCGCCATCTAC,0.888 RPM ratio (pull-down/input)
2,GATGATTGTTCTCCCAGCTGATGAATTTGGGGCTTCGAGTAAACAAATTTTCCTAATCTTTCTGTTCAAGCGCCATCTAC,0.839 RPM ratio (pull-down/input)
3,GATGATTGTTCTCCCAGCTGATGAATTCCGAATGTCGAGTAAACAAATTTTCCTAATCTTTCTGTTCAAGCGCCATCTAC,0.861 RPM ratio (pull-down/input)
4,GATGATTGTTCTCCCAGCTGATGAATTAATTGCTTCGAGTAAACAAATTTTCCTAATCTTTCTGTTCAAGCGCCATCTAC,1.16 RPM ratio (pull-down/input)
5,GATGATTGTTCTCCCAGCTGATGAATTATTTAGCTCGAGTAAACAAATTTTCCTAATCTTTCTGTTCAAGCGCCATCTAC,1.24 RPM ratio (pull-down/input)
6,GATGATTGTTCTCCCAGCTGATGAATTCAGATGCTCGAGTAAACAAATTTTCCTAATCTTTCTGTTCAAGCGCCATCTAC,1.1 RPM ratio (pull-down/input)
7,GATGATTGTTCTCCCAGCTGATGAATTGGAATACTCGAGTAAACAAATTTTCCTAATCTTTCTGTTCAAGCGCCATCTAC,0.876 RPM ratio (pull-down/input)
8,GATGATTGTTCTCCCAGCTGATGAATTCGGGATATCGAGTAAACAAATTTTCCTAATCTTTCTGTTCAAGCGCCATCTAC,0.878 RPM ratio (pull-down/input)
9,GATGATTGTTCTCCCAGCTGATGAATTTATATTCTCGAGTAAACAAATTTTCCTAATCTTTCTGTTCAAGCGCCATCTAC,1.04 RPM ratio (pull-down/input)
10,GATGATTGTTCTCCCAGCTGATGAATTGGCTGGATCGAGTAAACAAATTTTCCTAATCTTTCTGTTCAAGCGCCATCTAC,0.811 RPM ratio (pull-down/input)
11,GATGATTGTTCTCCCAGCTGATGAATTAGGTGGGTCGAGTAAACAAATTTTCCTAATCTTTCTGTTCAAGCGCCATCTAC,0.78 RPM ratio (pull-down/input)
12,GATGATTGTTCTCCCAGCTGATGAATTTCTGACCTCGAGTAAACAAATTTTCCTAATCTTTCTGTTCAAGCGCCATCTAC,0.807 RPM ratio (pull-down/input)
13,GATGATTGTTCTCCCAGCTGATGAATTCTGGTAATCGAGTAAACAAATTTTCCTAATCTTTCTGTTCAAGCGCCATCTAC,1.16 RPM ratio (pull-down/input)
14,GATGATTGTTCTCCCAGCTGATGAATTTGCTTGTTCGAGTAAACAAATTTTCCTAATCTTTCTGTTCAAGCGCCATCTAC,1.42 RPM ratio (pull-down/input)
15,GATGATTGTTCTCCCAGCTGATGAATTTAGCTCATCGAGTAAACAAATTTTCCTAATCTTTCTGTTCAAGCGCCATCTAC,0.887 RPM ratio (pull-down/input)
16,GATGATTGTTCTCCCAGCTGATGAATTGTCTTCTTCGAGTAAACAAATTTTCCTAATCTTTCTGTTCAAGCGCCATCTAC,1.05 RPM ratio (pull-down/input)
17,GATGATTGTTCTCCCAGCTGATGAATTAGTGGGCTCGAGTAAACAAATTTTCCTAATCTTTCTGTTCAAGCGCCATCTAC,0.837 RPM ratio (pull-down/input)
18,GATGATTGTTCTCCCAGCTGATGAATTGCACTCATCGAGTAAACAAATTTTCCTAATCTTTCTGTTCAAGCGCCATCTAC,1.15 RPM ratio (pull-down/input)
19,GATGATTGTTCTCCCAGCTGATGAATTTGCTAAGTCGAGTAAACAAATTTTCCTAATCTTTCTGTTCAAGCGCCATCTAC,0.94 RPM ratio (pull-down/input)
20,GATGATTGTTCTCCCAGCTGATGAATTACGTAAGTCGAGTAAACAAATTTTCCTAATCTTTCTGTTCAAGCGCCATCTAC,1.14 RPM ratio (pull-down/input)
21,GATGATTGTTCTCCCAGCTGATGAATTTTGAGTATCGAGTAAACAAATTTTCCTAATCTTTCTGTTCAAGCGCCATCTAC,1.07 RPM ratio (pull-down/input)
